Assay results reported in paper PMC4336329 (PLoS ONE, 2015).
About 2,200 (0.71%) of roughly 310,000 compounds showed an effect of 50% or more. Effects have a minus sign here. Some of the results follow.

biological target: human ether-à-go-go-related gene (hERG) potassium channel (human, UniProt Q12809); assay: primary screen, population patch clamp on CHO cells stably expressing hERG
Sequence (Q12809 whole entry, looked up): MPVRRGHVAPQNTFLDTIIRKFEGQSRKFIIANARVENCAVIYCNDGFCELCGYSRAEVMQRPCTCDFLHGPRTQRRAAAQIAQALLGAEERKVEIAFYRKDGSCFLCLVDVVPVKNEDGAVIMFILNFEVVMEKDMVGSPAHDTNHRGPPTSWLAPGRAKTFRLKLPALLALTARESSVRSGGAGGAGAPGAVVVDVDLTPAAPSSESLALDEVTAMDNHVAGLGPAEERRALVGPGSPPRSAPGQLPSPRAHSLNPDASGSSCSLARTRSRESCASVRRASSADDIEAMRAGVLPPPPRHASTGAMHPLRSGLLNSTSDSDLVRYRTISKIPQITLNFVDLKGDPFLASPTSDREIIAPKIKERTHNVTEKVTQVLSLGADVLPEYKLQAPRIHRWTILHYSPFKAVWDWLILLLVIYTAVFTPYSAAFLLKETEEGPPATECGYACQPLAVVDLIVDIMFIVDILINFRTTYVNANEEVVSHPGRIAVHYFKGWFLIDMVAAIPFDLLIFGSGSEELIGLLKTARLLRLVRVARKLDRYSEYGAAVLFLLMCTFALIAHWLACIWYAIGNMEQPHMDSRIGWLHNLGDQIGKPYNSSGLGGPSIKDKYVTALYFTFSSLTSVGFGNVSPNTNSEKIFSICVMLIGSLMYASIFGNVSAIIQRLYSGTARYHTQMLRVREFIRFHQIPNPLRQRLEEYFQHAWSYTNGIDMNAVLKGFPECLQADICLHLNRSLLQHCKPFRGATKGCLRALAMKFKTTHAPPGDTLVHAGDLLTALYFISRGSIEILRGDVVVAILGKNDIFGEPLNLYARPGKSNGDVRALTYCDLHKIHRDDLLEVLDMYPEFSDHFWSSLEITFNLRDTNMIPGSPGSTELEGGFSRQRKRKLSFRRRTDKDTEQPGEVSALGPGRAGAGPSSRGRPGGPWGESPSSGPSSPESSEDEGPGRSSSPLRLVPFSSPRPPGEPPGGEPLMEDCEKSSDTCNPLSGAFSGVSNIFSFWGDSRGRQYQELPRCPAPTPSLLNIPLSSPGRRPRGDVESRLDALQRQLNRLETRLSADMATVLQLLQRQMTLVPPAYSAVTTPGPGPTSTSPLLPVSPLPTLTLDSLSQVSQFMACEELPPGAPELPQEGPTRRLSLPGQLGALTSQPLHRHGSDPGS

Row | SMILES | hERG current change (%, negative = inhibition) at 1uM
1 | O=C1OC(c2ccc(F)cc2)=C/C1=C\c1ccc(O)cc1 | 13.6%
2 | CSc1ncccc1C(=O)N1CCN(S(=O)(=O)c2ccc(F)cc2)CC1 | 10.2%
3 | Cc1ccc(Cl)cc1N1C(=O)CC(C)(C)CC1=O | 14.6%
4 | CC(C)c1nnc(NC(=O)CCN2C(=O)c3ccccc3C2=O)s1 | 13.7%
5 | C1=CC2CC1CC2CN1CCN(Cc2ccccc2)CC1.O=C(O)C(=O)O (centres unmarked) | 10.4%
6 | COc1ccc(OC)c(C2=NOC(C(=O)NCc3ccccn3)C2)c1 (centres unmarked) | 6.59%
7 | O=C(Cn1cc2c(n1)CCCC2)NC1CCN(Cc2ccccc2)CC1 | 3.9%
8 | Cc1nc(/C(=N/O)C(N)=O)cs1 | 12.7%
9 | CCCCOc1ccccc1Cn1c(=O)oc2ccc(C)cc21 | 6.97%
10 | COc1ccc(Br)cc1CNCCSc1nnnn1C.Cl | -2.34%
11 | CCOC(=O)CNC(c1ccccc1)c1cc(Br)ccc1NC(C)=O (centres unmarked) | -1.51%
12 | COc1ccc(CN2C(=O)C(O)(CC(=O)c3ccc4c(c3)OCO4)c3ccccc32)cc1OC (centres unmarked) | -6.51%
13 | CCCN1CNc2c(c(=O)[nH]c(=S)n2-c2ccc(Cl)cc2)C1 | 1.74%
14 | Cc1cccc(-n2nnnc2SCC(=O)NCCN2C(=O)CSC2=O)c1 | -5.57%
15 | O=C(NCC(=O)N1CCN(S(=O)(=O)c2cccs2)CC1)c1ccc(Cl)cc1 | -11.6%
16 | O=CN(c1ccccc1)c1ccc2ccccc2c1 | 6.97%
17 | CC(=O)c1cc(NC(=O)c2ccccc2)c(=O)oc1/C=C/N(C)C | -4.92%
18 | COc1ccc(C2=CSC3=NCCN23)cc1[N+](=O)[O-] | 2.48%
19 | O=C(CCN1CCc2ccccc2C1)Nc1cccc(F)c1 | -1.84%

Row | SMILES | hERG current change (%, negative = inhibition) at 1uM
20 | O=C(c1ccco1)N1CCN(C(c2ccc(F)cc2)c2nnnn2CC2CCCO2)CC1 (centres unmarked) | 0.849%
21 | Br.CC(=O)c1sc(N/N=C2\CC3CCC2(C)C3(C)C)nc1C (centres unmarked) | 5.55%
22 | COc1cc(/C=C2\SC(=N)N(c3ccc(F)cc3)C2=O)ccc1O | 11.3%
23 | Cc1ccc(C(=O)NC(=O)CSc2ncccc2C(=O)O)cc1 | 3.17%
24 | COc1ccccc1NS(=O)(=O)c1cccc(C(=O)N/N=C(\C)c2ccc(-n3ccnc3)cc2)c1 | -9.87%
25 | O=C(Nc1nc2ccccc2s1)C1CC(=O)N(c2ccc(Br)cc2)C1 (centres unmarked) | 11.9%
26 | O=C(c1ccc(S(=O)(=O)c2cccc(Cl)c2)c([N+](=O)[O-])c1)N1CCN(Cc2ccccc2)CC1 | 15.8%
27 | Cc1cc(NC(=O)C2CCCCC2)ncc1NC(=O)c1ccccn1 | 13%
28 | Cc1ccc(S(=O)(=O)Nc2c(C)nc3nc(C)[nH]n3c2=O)c(C)c1 | 11.4%
29 | CCc1nnc(NC(=O)CSCc2cc(=O)n3nc(C)sc3n2)s1 | 16.7%
30 | Cc1nonc1C(=O)N1CCCC(Nc2ccc(C(C)C)cc2)C1 (centres unmarked) | 9.71%
31 | CC(=O)c1cccc(OCC(O)CNCCOc2ccc(C)cc2)c1 (centres unmarked) | 1.37%
32 | CCOC(=O)Cc1csc(NC(=O)CSc2nc(N)c3c(C)c(C)sc3n2)n1 | -5.18%
33 | O=C(CSc1nnc(-c2ccco2)n1Cc1ccccc1)c1ccc(F)cc1 | -24.1%
34 | O=C1CS/C(=N/N=C/c2cccs2)N1 | -6.76%
35 | CCN(CC)S(=O)(=O)c1cc(OC)c(C)cc1C | 10.9%
36 | CC(=O)Nc1ccc(NC(=O)C2c3ccccc3Oc3ccccc32)cc1 | 5.85%
37 | COc1cccc(CNC(=O)COC(=O)c2cccc(S(=O)(=O)N3CCN(C(C)=O)CC3)c2)c1 | 3.2%
38 | CC(C)(C)NC(=O)CN(C(=O)CS(=O)CC(=O)Nc1ccc(F)cc1)c1ccc(F)c(Cl)c1 (centres unmarked) | 0.265%

Row | SMILES | hERG current change (%, negative = inhibition) at 1uM
39 | CC(C)CC1(C)NC(=O)N(CC(=O)NC(=O)Nc2ccc3c(c2)OCCO3)C1=O (centres unmarked) | -0.0003%
40 | O=C(O)C(=O)O.O=S(=O)(c1ccc2ccccc2c1)N1CCN(Cc2ccccn2)CC1 | 7.9%
41 | CCOc1ccccc1NC(=S)N1CCN(c2ccccc2F)CC1 | 10.6%
42 | CC(=O)c1cccc(OCc2cc(C(=O)N(C)Cc3cnccn3)no2)c1 | 20.2%
43 | Cc1ccc(Cl)c(OC(=O)C2CSC3(C)CCC(=O)N23)c1 (centres unmarked) | 11%
44 | CCOc1ccccc1C(=O)Nc1cccc(-c2nnc(-c3ccccc3)o2)c1 | -2.48%
45 | CCOc1ccccc1-c1nc(-c2cc3ccc(C)cc3[nH]c2=O)no1 | 10.9%
46 | Cc1cc(C)c(C)c(OCC(=O)NCCN(C)C)c1 | 0.923%
47 | COc1ccc(N(CC(=O)NCCc2ccccc2)C(=O)CCC(=O)Nc2ccccn2)cc1 | 6.52%
48 | COc1ccc(CCN(C)C(=O)c2c(C)noc2C)cc1OC | 14.5%
49 | COc1ccc(C(=O)NCCc2ccccc2)cc1[N+](=O)[O-] | 2.4%
50 | O=c1cccc2n1CC1CC2CN(CC(O)CN2CC3CC(C2)c2cccc(=O)n2C3)C1 (centres unmarked) | 15.9%
51 | O=[N+]([O-])c1ccc(N2CCCCC2)c(-c2nn[nH]n2)c1 | 3.11%
52 | O=C(COC(=O)c1nn(-c2ccccc2)c(=O)c2ccccc12)NC1CCS(=O)(=O)C1 (centres unmarked) | 6.46%
53 | COc1cccc(OCc2nnc(-c3cccs3)o2)c1 | 17.3%
54 | O=C(CSc1nnc(NC(=O)c2ccccc2[N+](=O)[O-])s1)NCC1CCCO1 (centres unmarked) | 8.54%
55 | COc1ccc(NC2=CC(=O)CC(c3ccc(C)cc3)C2)c(OC)c1 (centres unmarked) | 3.1%
56 | Clc1ccc(-c2nnc3sc(Cc4cccs4)nn23)cc1 | 12.8%
